# From the supplement of paper PMC10681739
# ± gives the standard deviation of the averaged measurements. Over roughly 4,100 sequences, “arbitrary fluorescence units” has its median near 780; the highest 2% begin near 22,000. The list shows a part of the results.
# Molecular target: T1, ETS1 (UniProt P14921)
# T1 sequence: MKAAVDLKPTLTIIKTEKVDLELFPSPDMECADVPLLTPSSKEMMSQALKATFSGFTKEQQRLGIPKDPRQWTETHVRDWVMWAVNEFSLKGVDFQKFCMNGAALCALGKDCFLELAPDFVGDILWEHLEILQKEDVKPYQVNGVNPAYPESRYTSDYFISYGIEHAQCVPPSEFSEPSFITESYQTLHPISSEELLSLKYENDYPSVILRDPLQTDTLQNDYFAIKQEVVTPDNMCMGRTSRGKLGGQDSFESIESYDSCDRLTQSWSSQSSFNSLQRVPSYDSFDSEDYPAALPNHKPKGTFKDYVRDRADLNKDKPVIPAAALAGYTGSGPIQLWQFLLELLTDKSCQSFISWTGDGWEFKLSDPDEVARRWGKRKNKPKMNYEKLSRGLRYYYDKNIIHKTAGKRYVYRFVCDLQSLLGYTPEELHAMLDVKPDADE
# Experiment: ETS1 binding intensity (PBM fluorescence), ETS1 alone (arbitrary fluorescence units); higher = stronger binding
# Settings: ETS1 concentration 1 nM; RUNX1 concentration 0 nM
# Procedure, shortened: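 Recombinant full-length human ETS1 was applied at 1 nM, without RUNX1, to double-stranded Agilent 4 × 180k arrays of 36-bp genomic probes carrying a mutated RUNX1 partner site, following standard PBM protocols. Detection used an anti-ETS1 antibody (Cell Signaling Technology 14069) and an Alexa488-conjugated secondary antibody, with scanning on a GenePix 4400A. Each sequence was printed as four replicate spots. Binding level is the spot fluorescence intensity, summarised across replicates and not normalised.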
row,Sequence,ETS1 binding intensity
1,GAAAATCACAGAGGCATTCAAAGACAGGAAGCAGAG,796
2,CCTAAGTAATCACATTCTCGCTTCCTCCTTCCACAC,753
3,TGTGTCAACACCTCGGGCAGCTTCCGGTGCGACTGT,8120
4,TGGGTGCTGCAGGCCAAGCTTTCCCTTCCTTTGAGA,298
5,CGGCGCCTTCCGCAGAGGGACTGCAGCTTTCTGCGC,1200
6,CATCTCGCCTTCGGTCTGAGGAAGGGAACAGAAGGT,353
7,CCGCCACCGGAAGCGCCCTCCTAATCCCCGGAGCGC,11800
8,AATCATCAGGGAAATGCAAATCAAAACCCCAATCAG,415
9,TCTCTATGGTTTCCGTTGGGTGTGTGATTTTTTTGT,2300
10,GAGGTAGCCACCCACGACCAATCAGGAAACGGCGGC,464
11,AGCCTACATCCTGCACTGCTTAATCACAGCCCGCCT,6070
12,ACCCTCAGCTGCGCCTACAGACACTTCCTAGAATCT,480
13,CTCTCCAGATCGCGCATTTTGGGTCTCGGAAGAGGT,388
14,TCTTGTTTCTTCCGTTACCGGAGCGCGGCCACGTGA,2590
15,AGACTCCATCCGCCATGTTGGATGCCGTAGATTCGC,2440
16,GGTCCGGAAACGATTCTGGACCTGCAGGTATATCCA,2860
17,ATTACAGGAAGTATGTCCTCCTCTGCCTAAGCACTG,4800
18,CCAGGAAGGCGCCTGCATCCTCCAAGCCCAGAGAGC,640

row,Sequence,ETS1 binding intensity
1,GGACCAGCGGCGACCTGTAGGCGGAAGTCCGTGGCT,889 ± 43
2,AAATTCTTGACGTTACTTTGGAGGCGGATGGATGGG,440
3,GTGCTGGGGTGCTAGAGCGCGGCGCGACCGGACGCT,412
4,ACAGGCTGCTGTCGTTGACCAAGCTTCCTTTGCTGG,367
5,CCATTCCTACGGCCTTCATTGCTGCATCCGGTGGAG,2480
6,ACCACCCCCCGTTTCCTCCGAAGTGGCTGGTGCCTT,1440
7,GGCAAGACCAATCGGCGGCCACACGGAAGTGGGCGG,426
8,GGCAGGAGCAGCCGTAAACTAGGCCGGAAAACTGTC,437
9,CCTCCCGGCTTCCGTTCCTTGCCCACCTCCTTCTCG,5200
10,GAGCCACGCACACACAGCTCACAGGAAGAAGATAAG,510
11,GGCTACAGCAACCGTAAGGCATCACGGAAGTCGTAG,471
12,AGGCGCCGGAAAAACTACATCTCCCAAAATCCTCGG,535
13,CACCCTTCCGGCGGTGGCGGGCCTCGGTAATCGCCC,5760
14,CGTCCTGTGCTGCAGGCTCAGGCGGAACCCTGAACG,327
15,CTCTTCCAGGAAGCCTTCCCTGGCCACTGCTTGCTC,734
16,ACAAGGACTTCCGCCTCCCTGGGGTCCCTCCCCTAC,10100
17,CAGGGAAGTGATGCACAGAAAACACAAGCACACTGT,425
